From PubChem BioAssay AID1768 (National Center for Advancing Translational Sciences (NCATS), 2009)
Screen size: about 270,000 compounds; about 620 (0.23%) were called active. Inconclusive results, whose numbers are uncertain, are shown with a selection of clear calls. Calls follow the shape of the dose curve; as a rule, active = well fitted inhibition curve with a large enough effect in the polarisation, with a control signal flat (not every such curve was filed as active); inconclusive = small, poorly fitted or top-dose-only effect, or effect the other way, or a change in a side signal; inactive = no such curve, though single readings can be large or run the other way; the % refers to the polarisation. Potencies of inconclusive entries are doubtful fits and often do not repeat. “Side channel” marks fits to a control or component signal instead of the main read-out.

What follows are molecules tested against Menin (Homo sapiens) (UniProt O00255) (assay: qHTS Assay for Inhibitors Targeting the Menin-MLL Interaction in MLL Related Leukemias: Competition With Texas Red Labeled MLL-derived Mutant Peptide). Conditions: fluorescence polarization; FP activity change, negative = inhibition: at 61.6 µM (top of the series).
For FP activity change, negative = inhibition in this document: % of control where 0% means no effect.
Potency is read from the fitted curve at half-maximal effect; tags tell the direction and shape of the fitted curve or compound fluorescence and quenching.

Chain of UniProt O00255 (O00255 whole entry, looked up): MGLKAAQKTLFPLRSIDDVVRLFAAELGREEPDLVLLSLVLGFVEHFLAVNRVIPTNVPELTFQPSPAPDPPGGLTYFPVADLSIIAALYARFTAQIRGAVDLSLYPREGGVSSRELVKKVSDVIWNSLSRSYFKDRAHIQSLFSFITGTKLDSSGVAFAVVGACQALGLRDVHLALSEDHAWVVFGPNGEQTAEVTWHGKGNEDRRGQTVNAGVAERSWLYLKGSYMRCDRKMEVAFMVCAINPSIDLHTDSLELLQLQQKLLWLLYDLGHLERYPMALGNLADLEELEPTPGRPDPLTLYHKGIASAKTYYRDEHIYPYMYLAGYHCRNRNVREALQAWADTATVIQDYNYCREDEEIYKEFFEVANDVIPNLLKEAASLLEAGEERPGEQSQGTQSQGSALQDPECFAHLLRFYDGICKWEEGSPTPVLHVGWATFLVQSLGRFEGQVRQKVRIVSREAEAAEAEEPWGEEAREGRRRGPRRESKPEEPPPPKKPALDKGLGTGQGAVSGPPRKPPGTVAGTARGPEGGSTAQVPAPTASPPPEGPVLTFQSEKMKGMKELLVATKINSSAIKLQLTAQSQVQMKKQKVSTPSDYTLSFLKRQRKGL

Potency, inconclusive:
CCN(CC)c1ccc(/C=N/NC(=O)Nc2nonc2N)cc1 17.8 µM [quencher, side channel, partial curve], O=C(O)c1ccccc1Nc1cc(Cl)c2nonc2c1[N+](=O)[O-] 25.1 µM [quencher, side channel, partial curve], Cc1ccc(C(=O)NCc2ccco2)cc1S(=O)(=O)Nc1cccc(Cl)c1 28.2 µM [quencher, side channel, single point], Cc1cc(C(=O)CSc2nnc(-c3cccnc3)n2-c2ccccc2F)c(C)n1CC1CCCO1 (configuration not stated) 11.2 µM [fluorescent, side channel, partial curve], c1ccc(CN2C3=NCCCN3c3ccccc32)cc1 39.8 µM [inhibitor, single point], Cc1ccc(N(C(=O)Cn2nnc(-c3ccc(C)o3)n2)C(C(=O)NC2CCCC2)c2ccco2)cc1 (configuration not stated) 15.8 µM [fluorescent, side channel, partial curve], COc1cc(CNCCCN2CCOCC2)ccc1OCC(=O)Nc1cccc(C(F)(F)F)c1 0.708 µM [inhibitor, full curve, poor fit], O=C(NCCCO)Nc1ccc2nc(-c3ccco3)c(-c3ccco3)nc2c1 14.1 µM [quencher, side channel, partial curve], O=C(N/N=C/c1ccc([N+](=O)[O-])s1)c1cccc(Br)c1 31.6 µM [quencher, side channel, single point], CCCc1c(C(=O)N/N=C/c2sccc2C)nnn1-c1nonc1N 39.8 µM [fluorescent, single point], COc1cc(C(=O)N/N=C/c2ccc(OC(=O)c3cccc(C)c3)cc2)ccc1O 25.1 µM [quencher, side channel, partial curve], O=C(CCl)N(c1ccccc1)C1CCCCC1 0.794 µM [fluorescent, side channel, full curve], Cc1cc(N/N=C/c2ccc(O)c(C)c2O)nc(-c2ccccc2O)n1 3.55 µM [quencher, side channel, full curve], CCOC(=O)N1CCN(C(=O)CNC(=O)c2nn(-c3ccc(OC)cc3)c(=O)c3ccccc23)CC1 5.62 µM [inhibitor, full curve, poor fit], CNC(=S)N/N=C/c1cn(CCOc2cccc(OC)c2)c2ccccc12 10 µM [quencher, side channel, partial curve], CCOCCCN(Cc1ccco1)C(=O)c1cc2c(=O)[nH]c3ccc(C)cc3c2s1 22.4 µM [fluorescent, side channel, partial curve], O=C(O)c1cccc(-n2cccc2C=C2C(=O)c3ccccc3C2=O)c1 31.6 µM [quencher, side channel, single point], CCCn1c(=O)n(C)c(=O)c2c(SCC(=O)NCc3ccco3)nc(C3CC3)nc21 39.8 µM [fluorescent, side channel, single point], CCOC(=O)N1CCN(C(=O)c2oc3ccc(S(=O)(=O)N4CC(C)CC(C)C4)cc3c2C)CC1 (configuration not stated) 3.55 µM [fluorescent, partial curve], Cc1ccc(C(=O)N2CC(=O)Nc3ccc(F)cc3C2c2ccc(F)cc2)cc1 (configuration not stated) 14.1 µM [fluorescent, side channel, partial curve], Cc1cc(O)c(NC(=O)c2cc([N+](=O)[O-])ccc2Cl)cc1C 28.2 µM [quencher, side channel, partial curve], Fc1ccc(CCNC(=S)Nc2ccc(F)c(Cl)c2)cc1 7.08 µM [quencher, side channel, partial curve], CCOC(=O)C(=CNc1cc(C)ccc1C)C(=O)OCC 22.4 µM [fluorescent, side channel, single point], COc1ccc(NC(=S)Nc2nc(CC(=O)Nc3ccccc3OC)cs2)cc1 20 µM [inhibitor, partial curve], CC(C)CC(=O)Nc1ccc(-c2nnn(CC(=O)NCc3ccco3)n2)cc1 39.8 µM [inhibitor, single point], CC(/C=N/NC(=O)c1nnn(-c2nonc2N)c1C(C)C)=C\c1ccco1 20 µM [quencher, side channel, partial curve], Cc1nn(Cc2ccccc2Cl)c(C)c1C(=O)N1CCN(c2ccccc2)CC1 31.6 µM [fluorescent, side channel, single point], CN(C)CCCN(C(=O)c1ccc(S(=O)(=O)N(C)Cc2ccccc2)cc1)c1nc2cc3c(cc2s1)OCO3 7.94 µM [fluorescent, side channel, full curve]

Potency, inactive:
COc1cc2c(N3CCOCC3)cc(O)c(CC(=O)Nc3ccccc3)c2cc1OC, COCC(=O)N1CCC[C@@]2(CCN(c3ccccn3)C2)C1, Cc1nonc1NC(=O)CSc1nc2cc(Cl)ccc2c2c1CCCC2, COc1ccc(Cn2nnnc2C(c2cccs2)N2CCN(c3ccc([N+](=O)[O-])cc3)CC2)cc1 (configuration not stated), COc1cccc(CNC(=O)N2CCN(S(=O)(=O)c3ccc(Cl)cc3)CC2)c1, CC(=O)OC1CC[C@]2(C)C(CC(OC(C)=O)[C@@]3(C)C4=CC(=O)OC(c5ccoc5)[C@]4(C)CCC23)C1(C)C (some centres not stated), COC(=O)C1(C(=O)OC)C[C@H]2CON=C2[C@H]1c1ccccc1, CC(C)OC(=O)[C@@H]1CC[C@H](C)[C@@H](CCCCO)O1

FP activity change, negative = inhibition, inactive:
Cc1noc(C)c1S(=O)(=O)N1CCc2nc(COc3ccccc3)c3c(c2C1)CO[C@@H](C)C3 -11.8% [at 11.7 µM]
